The record followed here is PubChem BioAssay AID360 (National Center for Advancing Translational Sciences (NCATS), 2006).

Each structure is given as a SMILES string. In all, about 48,000 compounds went through this assay and about 550 (1.1%) were called active. Another 4% or so got no clear call; they are omitted. Cut-off read from the data, not from the text of the source: active = potency below about 15 µM; inconclusive = mostly about 16 µM to 33 µM; inactive = weaker than that. This is one part of the list.
Potency is the fitted concentration of half-maximal effect.

Sequence of UniProt P04062 (P04062 whole entry, looked up): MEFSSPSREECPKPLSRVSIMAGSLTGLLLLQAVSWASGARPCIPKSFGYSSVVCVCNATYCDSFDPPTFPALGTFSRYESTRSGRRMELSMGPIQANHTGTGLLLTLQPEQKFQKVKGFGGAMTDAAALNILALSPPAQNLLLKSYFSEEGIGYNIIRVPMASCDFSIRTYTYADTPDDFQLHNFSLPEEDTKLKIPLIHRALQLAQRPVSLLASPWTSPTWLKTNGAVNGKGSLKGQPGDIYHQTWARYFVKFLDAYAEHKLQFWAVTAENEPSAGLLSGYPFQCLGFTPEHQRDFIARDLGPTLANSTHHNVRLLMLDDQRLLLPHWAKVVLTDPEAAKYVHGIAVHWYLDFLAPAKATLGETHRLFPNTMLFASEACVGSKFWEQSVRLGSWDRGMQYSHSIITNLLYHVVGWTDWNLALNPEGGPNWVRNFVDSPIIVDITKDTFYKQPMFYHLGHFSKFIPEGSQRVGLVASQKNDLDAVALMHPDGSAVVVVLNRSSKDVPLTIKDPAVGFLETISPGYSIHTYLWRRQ

The target of this test is Lysosomal acid glucosylceramidase (Homo sapiens) (UniProt P04062). Kind of test: Glucocerebrosidase.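 Note: the screen sought inhibitors.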 To be noted: purified enzyme, resorufin glucoside fluorescence (screen aimed at inhibitors), 20 min; series mostly up to 77 µM. An outline of the steps:
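Compounds titrated against 0.2 nM normal enzyme, 30 uM resorufin beta-D-glucopyranoside substrate, citrate/phosphate buffer with taurocholate and tween-20, pH 5.9. Reaction ran 20 min at room temperature; fluorescence (Ex 548/Em 600) gave AC50.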
As to `Cc1cc(C(=O)CSc2nnc(-c3ccc(Cl)cc3)n2CC2CCCO2)c(C)n1C` (configuration not stated), the Potency was inactive: > 76.9 µM.

Consider `CCn1c(-c2cc(OC)ccc2OC)csc1=Nc1c(C)n(C)n(-c2ccccc2)c1=O`, for which the Potency is inactive: > 76.9 µM.

For `Cc1ccc(-n2c(SCC(=O)OC(C)C)nnc2-c2ccco2)cc1`, the Potency was inactive: > 76.9 µM.

`CCOC(=O)C1=CSC2=NS(=O)(=O)CCN12`: the Potency was inactive: > 76.9 µM.

Take `O=C(CSC1CCCCC1)N1CCN(c2ccccc2)CC1`: the Potency was inactive: > 76.9 µM.

For the molecule `N#Cc1nc(N2CCCC2)nc(N2CCCC2)n1`, the Potency was inactive: > 76.9 µM.

For `CCOCc1nnc(NC(=O)CSCc2ccccc2)s1`, the Potency was inactive: > 76.9 µM.

For `CCCc1cc(=O)[nH]c(SCC(=O)c2cc(C)n(C(C)COC)c2C)n1` (configuration not stated), the Potency was inactive: > 76.9 µM.

With `Cc1cccc2cc(CN(CC3CCCO3)C(=O)c3cccnc3)c3nnnn3c12` (configuration not stated), the Potency is inactive: > 76.9 µM.

`CCOc1nc(-c2ccccc2)ccc1-c1noc(COC)n1`: the Potency is inactive: > 76.9 µM.

As for `O=C1Nc2c(Br)cc(Br)cc2C1(O)N1CCOCC1` (configuration not stated), the Potency was inactive: > 76.9 µM.

For `COc1cccc(N2C(=O)CC(c3c[nH]c4ccccc34)C2=O)c1` (configuration not stated), the Potency was inactive: > 76.9 µM.

As for `CC1(C)CC(=O)C2=C(C1)NC(=O)CC2c1ccccc1F` (configuration not stated), the Potency was inactive: > 76.9 µM.

Take `O=C(NCc1nc2ccccc2[nH]1)c1cc2ccccc2oc1=O`: the Potency was inactive: > 76.9 µM.

Regarding `COC(=O)c1ccc(C2c3c(oc4ccc(F)cc4c3=O)C(=O)N2CCO)cc1` (configuration not stated), the Potency is inactive: > 76.9 µM.

For `CCOC(=O)c1cnc(SC2CCc3ccccc3C2=O)nc1N` (configuration not stated), the Potency is inactive: > 76.9 µM.

`CC1(C)CC(C#N)(N2CCOCC2)CCO1` (configuration not stated): the Potency was inactive: > 76.9 µM.

For the molecule `CCc1ccc2oc(-c3cc(N)ccc3O)nc2c1`, the Potency was inactive: > 76.9 µM.

In the case of `O=C(NCc1ccccn1)c1ccc2nc(-c3ccco3)c(-c3ccco3)nc2c1`, the Potency is inactive: > 76.9 µM.

With `CCOc1ccc(CNc2ccc3c(c2)ncn3C)cc1`, the Potency was inactive: > 76.9 µM.

Turning to `Cc1nc2ncnn2c(Nc2ccc3c(c2)OCO3)c1Cc1ccccc1`, the Potency is inactive: > 76.9 µM.

In the case of `O=C(c1ccco1)N1CCN(C(=O)c2cc3sccc3n2Cc2ccccc2)CC1`, the Potency is inactive: > 76.9 µM.

As to `CCN1C(=O)c2cccc3c(NC(=O)c4cccc(N5C(=O)CCC5=O)c4)ccc1c23`, the Potency was inactive: > 76.9 µM.

Consider `CCOC(=O)c1c(C)[nH]c2cc(Br)c(O)cc12`, for which the Potency was inactive: > 76.9 µM.

As for `COCCN(CC(=O)NC1CCCCC1)C(=O)CSc1nc2ccccc2o1`, the Potency was inactive: > 76.9 µM.

Regarding `Cc1onc(-c2c(F)cccc2Cl)c1C(=O)N1CCc2ccccc2C1`, the Potency is inactive: > 76.9 µM.

For `CCOC(=O)CSc1nc(N)c(C#N)c(-c2ccc(OCC)cc2)c1C#N`, the Potency is inactive: > 76.9 µM.

As for `O=C(O)CCC(=O)N1CCc2cc(S(=O)(=O)NC3CCCc4ccccc43)ccc21` (configuration not stated), the Potency is inactive: > 76.9 µM.

On to `COc1ccc(CN2CCC(CNC(=O)NC3CCCCC3)CC2)cc1`, for which the Potency was inactive: > 76.9 µM.

`CC(C)(/C=N/O)/[N+]([O-])=C/c1ccccc1C(F)(F)F`: the Potency was inactive: > 76.9 µM.

As to `CCOC(=O)c1oc2ccccc2c1CN1CCOCC1`, the Potency is inactive: > 76.9 µM.

Take `COCCN1C(=O)c2ccccc2C(C(=O)NCCCN2CCCC2=O)C1c1c[nH]c2ccccc12` (configuration not stated): the Potency is inactive: > 76.9 µM.

Turning to `C=CCn1c(COc2ccccc2)nnc1SCC(=O)C(C)(C)C`, the Potency was inactive: > 76.9 µM.

Turning to `CCc1c(C)sc(NC(=O)OC)c1C(=O)N1CCCCC1`, the Potency was inactive: > 76.9 µM.

As for `O=C(NCCc1ccccn1)C1CCCN(S(=O)(=O)Cc2ccccc2)C1` (configuration not stated), the Potency is inactive: > 76.9 µM.

Regarding `Cn1c(=O)cc(OCCCC(=O)N2CCCCC2)c2ccccc21`, the Potency is inactive: > 76.9 µM.

As to `CCCCC(=O)Nc1ccc(NC(=O)c2ccc3c(c2)OCO3)cc1OC`, the Potency is inactive: > 76.9 µM.

In the case of `COc1ccc(C(C)=O)cc1COC(=O)c1ccc(S(=O)(=O)N2CCOCC2)cc1`, the Potency is inactive: > 76.9 µM.

Consider `Cc1cc(C(=O)N2CCN(C(c3ccccc3)c3ccccc3)CC2)no1`, for which the Potency is inactive: > 76.9 µM.

Take `C=CCn1c(C)cc(C(=O)COc2nncc3ccccc23)c1C`: the Potency is inactive: > 76.9 µM.

`CC(C)c1ccc(NC(=O)c2csnn2)cc1`: the Potency result is “inactive”.

Consider `COc1ccc(S(=O)(=O)N[C@@H](Cc2ccccc2)C(=O)N2CC[C@@]3(O)CCCC[C@H]3C2)cc1`, for which the Potency is inactive: > 76.9 µM.

As for `COc1cccc(C2C(C(=O)Nc3ccc(C)cc3C)=C(C)Nc3ncnn32)c1OC` (configuration not stated), the Potency was inactive: > 76.9 µM.

As to `N#C/C(=C(/O)CN1CCOCC1)c1nc(-c2ccccc2)cs1`, the Potency is inactive: > 76.9 µM.

`C=CCN1C(=O)CS/C1=C(\C#N)S(=O)(=O)c1ccc(C)cc1`: the Potency is inactive: > 76.9 µM.

Regarding `COc1cc(OC)c(-c2nnc(-c3ccc(OC)c(OC)c3OC)o2)cc1OC`, the Potency was inactive: > 76.9 µM.

Turning to `C=CCOC(=O)C1=C(C)Nc2nnnn2C1c1cc(OC)ccc1OC` (configuration not stated), the Potency is inactive: > 76.9 µM.

As to `CN1CCN(C(=O)NC2CCCN2S(=O)(=O)c2ccc(Cl)cc2)CC1` (configuration not stated), the Potency is inactive: > 76.9 µM.

Turning to `Cc1cc(C)n(CCOC(=O)c2sc3ccccc3c2Cl)n1`, the Potency was inactive: > 15.4 µM.

As for `O=C(Cn1cnc2c(nnn2-c2ccc(F)cc2)c1=O)N1CCCC1`, the Potency is inactive: > 76.9 µM.

Turning to `CCNC(=O)C1CC(=O)N(Cc2ccc3c(c2)OCO3)C(=Nc2ccc(OCC)cc2)S1` (configuration not stated), the Potency is inactive: > 76.9 µM.

For the molecule `COCCCn1c(=S)[nH]c2ncccc2c1=O`, the Potency is inactive: > 76.9 µM.

On to `CN(C)c1cc(O)c(C(=S)Nc2ccccc2)c(N(C)C)c1`, for which the Potency was inactive: > 76.9 µM.

On to `Cc1ccc(C)c(S(=O)(=O)C(C#N)c2nc3ccccc3nc2N2CCCC2)c1` (configuration not stated), for which the Potency entry is “inactive”.

For the molecule `CC12C=CC3(CN(Cc4ccccc4)C(=O)C3C1C(=O)NC1CC1)O2` (configuration not stated), the Potency is inactive: > 76.9 µM.

As for `COC(=O)c1ccccc1NC(=O)C1CCCN(S(=O)(=O)c2ccc(OC)cc2)C1` (configuration not stated), the Potency was inactive: > 76.9 µM.

For `O=C(CSc1nnc(COc2ccccc2)o1)NCCc1ccccc1`, the Potency is inactive: > 76.9 µM.
